Source: PubChem BioAssay AID1508642 (National Center for Advancing Translational Sciences (NCATS), 2021)
Screen size: about 43,000 compounds; about 200 (0.47%) were called active. Roughly 12% stayed inconclusive and do not appear here. Calls follow the shape of the dose curve; as a rule, active = well fitted cell-killing curve with a large enough effect; inconclusive = small, poorly fitted or top-dose-only effect, or effect the other way; inactive = flat fitted curve, though single readings scatter. Some of the results follow.

Assay: Cell viability qHTS assay in S16 Pmp22-F2sN cells; also: nearly all actives have a fitted effect of over 65% in size
Conditions: S16 Pmp22-F2sN Schwann cells (luciferase reporters placed in the Pmp22 gene) viability, CellTiter-Glo, 24 h; series mostly up to 57.5 µM; activity change, negative = cytotoxicity: at the top concentration
Summary of the method: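 S16 Schwann cells carrying the Pmp22-F2sN reporter, seeded in 1536-well format, were exposed to library compounds for 24 h at 37C. Viability was read as CellTiter-Glo luminescence after 15 min at room temperature.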
% is scaled to controls: 0 for no effect and ±100 for the full control effect; potency is read from the fitted curve at half-maximal effect.

Compound	activity change, negative = cytotoxicity	Potency
CC(=O)c1ccc(NC(=O)C(Cc2ccccc2)NS(=O)(=O)c2ccc3c(c2)CCC(=O)N3)cc1 (configuration not stated)	inactive: 0.101%	–
COc1ccc(/C=C/c2nc(-c3ccccc3O)n(-c3ccccc3)n2)cc1OC	inactive: -2.63%	–
CCC(=O)N1CCc2cc(S(=O)(=O)NCCC(=O)NC(C)c3ccccc3)ccc21 (configuration not stated)	inactive: -2.94%	–
CCOC(=O)CC(NC(=O)c1cc2cc(OC)ccc2oc1=O)c1ccc(OC)cc1 (configuration not stated)	inactive: 2.33%	–
Cc1cccc(C(=O)Nc2nnc(S(=O)(=O)N3CCC(C)CC3)s2)c1	inactive: 6.66%	–
O=C(CCC(=O)N1CC2CCCN2c2ccccc21)NCc1ccccc1F (configuration not stated)	inactive: -1.68%	–
Cc1cccc(OCC(=O)OCc2cc(=O)n3nc(C4CC4)sc3n2)c1	inactive: -13.6%	–
O=S(=O)(NCCc1ccc(Cl)cc1)c1ccc(N2CCCCS2(=O)=O)cc1	inactive: 5.34%	–
COc1ccc(C2=C(C)C(=O)N(Cc3ccc(C(=O)NCc4ccccc4C)cc3)S2(=O)=O)cc1	inactive: 4.36%	–
CCOc1ccc(NC(=O)CCn2c(-c3ccc(F)cc3)cc(C(C)=O)c2C)cc1	inactive: -14.6%	–
Cc1ccc(C2C=C(c3ccc(Cl)cc3)Nc3nc(NC(=O)CCC(=O)O)nn32)cc1 (configuration not stated)	inactive: 6.77%	–
COc1ccc(NC(=O)Nc2nnc(SCC(=O)Nc3cccc(C)c3C)s2)cc1	inactive: 1.4%	–
CCn1cnc2c(=O)oc3ccc(S(=O)(=O)N4CCN(c5cc(C)ccc5C)CC4)cc3c21	inactive: 1.46%	–
CCC(C)Cn1c(COc2ccc(OC)cc2)nc2ccccc21 (configuration not stated)	inactive: 4.42%	–
O=C(CSc1nnc(-c2ccccc2)c(-c2ccccc2)n1)Nc1ccccc1Cl	inactive: -11.9%	–
CCCOc1ccc(C(=O)Nc2cc3nn(-c4ccc(CC)cc4)nc3cc2C)cc1	inactive: 7.8%	–
COc1ccccc1OCCCn1c(-c2ccc(Cl)cc2)nc2ccccc2c1=O	inactive: -6.08%	–
CCOC(=O)c1ccc(NC(=O)Nc2cccc(OCc3cc(=O)n4ccc(C)cc4n3)c2)cc1	inactive: 18.4%	–
COc1ccc(NC(=O)CCc2nc3cccnc3n2Cc2cccs2)c(OC)c1	inactive: 7.06%	–
O=C(NCCn1cc(SCc2ccc(C(F)(F)F)cc2)c2ccccc21)c1ccccc1F	inactive: 2.91%	–
Cc1ccc(CN2C(=O)SC(Nc3ccccc3)C2=O)cc1 (configuration not stated)	inactive: 3.6%	–

Compound	activity change, negative = cytotoxicity	Potency
O=C(NCc1ccc(F)cc1)c1ccc2c(c1)N(Cc1ccc(F)cc1Cl)C(=O)CS2	inactive: 17.1%	–
CCCSc1ncc(Cl)c(C(=O)Nc2ccc(OC)cc2OC)n1	inactive: 1.12%	–
Cc1ccccc1C(=O)NCC(c1ccc(N(C)C)cc1)N1CCCC1 (configuration not stated)	inactive: 7.03%	–
COc1ccc(S(=O)(=O)N(Cc2nc(-c3ccccc3)no2)C2CCCCC2)cc1	inactive: -6.29%	–
COc1cc(C2CC(=O)N(c3ccc(C)c(Cl)c3)C3=C2C(=O)OC3)cc(OC)c1OC (configuration not stated)	inactive: 4.93%	–
O=C(CCS(=O)(=O)c1ccc(Br)s1)Nc1c(F)cccc1F	inactive: 3.98%	–
Cc1cccc(-c2noc(-c3cccnc3NCc3ccccc3Cl)n2)c1	inactive: 11.5%	–
CNC(=O)C1CCC(Cn2c(=O)c3sccc3n(CC(=O)N3CCCCC3C)c2=O)CC1 (configuration not stated)	inactive: -12%	–
COc1cccc(-c2cc(C(F)(F)F)n3nc(-c4ccc(C)cc4)cc3n2)c1	inactive: 6.06%	–
CNS(=O)(=O)c1ccc(NC(=O)c2nc3nc(C)cc(C(F)F)n3n2)cc1	inactive: 5.4%	–
CCN(c1ccccc1)S(=O)(=O)c1ccc(NC(=O)c2cc(=O)c3c(C)cc(C)cc3o2)cc1	inactive: -0.905%	–
O=C1CCc2cc(S(=O)(=O)NC(C(=O)Nc3ccc(F)cc3)c3ccccc3)ccc2N1 (configuration not stated)	inactive: -29.7%	–
CCc1ccccc1N1CC(c2nc3ccccc3n2CCCCOc2ccccc2OC)CC1=O (configuration not stated)	inactive: -16.4%	–
CC(C)NC(=O)Cc1csc2nc(-c3ccccc3)cn12	inactive: -8.56%	–
CCOc1ccc(NS(=O)(=O)c2ccc3[nH]cc(C(=O)N4CCCC4)c(=O)c3c2)cc1	inactive: 3.71%	–
CC(C)c1cnc2c(c1SCc1ccc([N+](=O)[O-])cc1)c(=O)n(C)c(=O)n2C	inactive: 4.44%	–
O=c1n(Cc2ccccc2)nc2n1-c1ccccc1OC2	inactive: 5.07%	–
COc1cc2c(cc1OC)C(COc1ccc(F)cc1)N(C(=O)C(C)C)CC2 (configuration not stated)	inactive: 0.0487%	–
Cc1nc2nc(CNC(=O)c3cccc(F)c3)nn2c(C)c1CCC(=O)Nc1ccc(F)cc1	inactive: 0.72%	–
COc1ccc(OC)c(NC(=O)c2ccc3nc(C(C)C)oc3c2)c1	inactive: 4.15%	–
Cc1cccc(N2CCN(S(=O)(=O)c3nnc(NC(=O)c4ccc(Cl)cc4)s3)CC2)c1	inactive: 2.21%	–

Compound	activity change, negative = cytotoxicity	Potency
O=C1CC(c2nnc(Cc3ccc(F)cc3)o2)CN1c1ccccc1 (configuration not stated)	inactive: -3.14%	–
Cc1cccc(NC(=O)CSc2cn(CC(=O)N3CCC(C)CC3)c3ccccc23)c1C	inactive: -1.08%	–
COc1ccccc1CNC(=O)c1cc(S(=O)(=O)N2CCCCCC2)cn1C	inactive: 12.2%	–
Fc1ccccc1-n1ncc2c1ncn1nc(COc3ccc(Cl)cc3)nc21	inactive: -6.17%	–
CCc1cccc(NC(=O)c2cc(S(=O)(=O)N3CCCCCC3)cn2C)c1	inactive: -7.37%	–
CC(C)(C)C(=O)NC1CC(=O)N(c2ccc3c(c2)OCCO3)C1 (configuration not stated)	inactive: 2.35%	–
COc1ccccc1NC(=O)c1sc2nc(C)c(C(=O)Nc3ccc(Cl)cc3)c(-c3ccc(Br)cc3)c2c1N	–	active: 14.1 µM
Cc1c(C2=CCN(S(=O)(=O)c3ccc(Cl)cc3)CC2)c2ccccc2n1CC(=O)N1CCCC1	inactive: -4.17%	–
CCc1ccc2oc(C(=O)Nc3nc(-c4ccc(F)cc4)ns3)c(C)c2c1	inactive: 0.196%	–
Cc1cc2c(n1-c1ccc(C(=O)NCCc3ccc(Cl)cc3)cc1)CCC(C)C2 (configuration not stated)	inactive: 0.347%	–
CCC1CCCCN1C(=O)CSc1n[nH]c(-c2ccccc2)n1 (configuration not stated)	inactive: 10.1%	–
COc1ccc(N(Cc2nnc3n2CCCCC3)C(=O)Nc2ccc(Cl)cc2)cc1Cl	inactive: 0.456%	–
CC(=O)Nc1ccc(Nc2nc3ccc(Cl)cc3n3cnnc23)cc1	inactive: 14.6%	–
CNC(=O)c1ccc(-c2nc(CN3CCc4ccccc43)c(C)o2)cc1	inactive: 4.84%	–
Cc1cccc(OCC(=O)Nc2ccc(OCc3cc(=O)n4cc(C)ccc4n3)cc2)c1	inactive: 7.19%	–
Cc1c(Cl)cccc1NC(=O)C(C)n1nc(C)c2c(C)n(-c3ccccc3)nc2c1=O (configuration not stated)	inactive: -1.9%	–
O=C(CC1(O)C(=O)N(CCc2ccccc2)c2ccc(Br)cc21)c1ccccc1 (configuration not stated)	inactive: -15.1%	–
Cc1ccc(-n2c3nc(=O)n(C)c(=O)c-3cc3ccccc32)c(C)c1	inactive: 5.46%	–
CCC(=O)N1CCc2cc(Br)cc(S(=O)(=O)N3CCCC(C(=O)NCc4ccc(C)cc4)C3)c21 (configuration not stated)	inactive: 2.74%	–
Cc1nc2c3ccccc3nc(NNC(=O)CCC(=O)N3CCN(c4ccc(F)cc4)CC3)n2n1	inactive: 3.38%	–
